Experimental findings from the supplement of paper PMC8183993 are described below.

SMILES strings stand for the structures. “And” between values parts separate entries of the source, which are not always exact repeats. Equal entries are not always repeated. Structures can show the parent of a compound that is named as a salt. ± gives the standard deviation of the averaged measurements. Whole data set: some 3,100 compounds, median “mean cytoplasmic OPP incorporation (global translation) relative to DMSO” near 100, cut for the lowest 2% near 56. Some of the results follow. Numbered stars: 1 amine (or outer) side, 2 acyl side, 3 side chain; on linkers, the order of the positions; unused ones are H or OH. Bridge positions count the residues as written; N and C are the ends. Square brackets hold non-standard residues; d marks the D form. Peptide text beside a SMILES is read from it. * marks the point of attachment. X1 = NC1=N[C@@H]([C@H](N[*:1])C(=O)[*:2])C[C@H](O)N1; ΔAla(Z-3-ureido) = NC(=O)N/C=C(\N)C(=O)O; β3hOrn = NCCC[C@H](N)CC(=O)*; Dap = NC[C@H](N)C(=O)O

The test system of the experiment is U2OS. Kind of experiment: mean cytoplasmic OPP incorporation (global translation) relative to DMSO (% of DMSO); higher = more protein synthesis. The settings on record: 10 µM; 24 h. The procedure:
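Primary image-based screen in U2OS cells: compounds at 10 uM for 24 h, then a 1 h o-propargyl-puromycin (OPP) pulse, click labelling, and high-throughput microscopy. Mean cytoplasmic OPP intensity and nuclei count were normalised to DMSO wells within each plate (DMSO = 100) and averaged over triplicate plates.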
Take `C[C@H]1[C@H](OC(=O)CCC(=O)O)O[C@@H]2O[C@@]3(C)CC[C@H]4[C@H](C)CC[C@@H]1[C@@]24OO3` [Artesunate]: the “mean cytoplasmic OPP incorporation” value came out at 89.4. With `CN(CCOc1ccc(C[C@H](Nc2ccccc2C(=O)c2ccccc2)C(=O)O)cc1)c1ccccn1`, the “mean cytoplasmic OPP incorporation” value came to 106. In the case of `O=C(O)CCNC(=O)c1ccc(/N=N/c2ccc(O)c(C(=O)O)c2)cc1` [Balsalazide Sodium], the “mean cytoplasmic OPP incorporation” value was found to be 102. In the case of `Cc1cccc(Nc2ccccc2C(=O)O)c1C` [Mefenamic acid] it was 94.1; in that of `CCC(C)n1ncn(-c2ccc(N3CCN(c4ccc(OCC5COC(Cn6cncn6)(c6ccc(Cl)cc6Cl)O5)cc4)CC3)cc2)c1=O` (stereo not given) [Itraconazole], 117. In the case of `CCC(C)n1ncn(-c2ccc(N3CCN(c4ccc(OCC5COC(Cn6cncn6)(c6ccc(Cl)cc6Cl)O5)cc4)CC3)cc2)c1=O` (stereo not given) [Itraconazole (Sporanox)] it was 109. `CCOc1cc(N)c(Cl)cc1C(=O)NCC1CN(Cc2ccc(F)cc2)CCO1` (stereo not given) [Mosapride citrate]: the “mean cytoplasmic OPP incorporation” value amounted to 116. For `C[n+]1ccccc1/C=N/O` [Pralidoxime chloride] the value was 98.4; for `CNCCCN1c2ccccc2CCc2ccccc21` [Desipramine hydrochloride], 108; for `O=C1OC(CN2CCOCC2)CN1/N=C/c1ccc([N+](=O)[O-])o1` (stereo not given) [Furaltadone hydrochloride], 100. For the compound `Cc1ccc(-c2c(-c3nn(C)c4ncnc(N5CC[C@H](N6CCCCC6)C5)c34)cnn2C)cc1`, the “mean cytoplasmic OPP incorporation” value was 111. For the compound `O=C1c2c(O)cc(O)cc2O[C@H](c2cc(O)c(O)c(O)c2)[C@H]1O` [Dihydromyricetin (Ampeloptin)], the “mean cytoplasmic OPP incorporation” value is 98.1. In the case of `Cc1cccc(C(=O)NCN2CCN(c3ccccc3C#N)CC2)c1` it was 94.9.

`CN(C)CCCN1c2ccccc2CCc2ccccc21` [Imipramine hydrochloride]: the “mean cytoplasmic OPP incorporation” value turned out to be 91.1.

With `C[C@H]1COc2c(N3CCN(C)CC3)c(F)cc3c(=O)c(C(=O)O)cn1c23` [Levofloxacin (Levaquin)], the “mean cytoplasmic OPP incorporation” value was determined as 93.6. In the case of `NC(CO)C(=O)NNCc1ccc(O)c(O)c1O` (stereo not given) [Benserazide hydrochloride] it was 97.5. As for `CCN(CC)CCCCN1c2ccccc2Oc2ccc(Cl)cc21` [10-DEBC hydrochloride], the “mean cytoplasmic OPP incorporation” value came to 104.

Consider `CCCC(=O)OCOC(=O)C1=C(C)NC(C)=C(C(=O)OC)C1c1cccc(Cl)c1Cl` (stereo not given) [Cleviprex (Clevidipine)], for which the “mean cytoplasmic OPP incorporation” value is 96.7. As for `NCCC[C@H](N)CC(=O)N[C@H]1CNC(=O)[C@H]([C@H]2C[C@H](O)NC(N)=N2)NC(=O)/C(=C/NC(N)=O)NC(=O)[C@H](CO)NC(=O)[C@H](CO)NC1=O` [Viomycin sulfate] (β3hOrn-[Dap]SS[ΔAla(Z-3-ureido)][X1]; lactam 1-C), the “mean cytoplasmic OPP incorporation” value came to 106. As to `O=c1[nH]cnc2c1ncn2[C@H]1CC[C@@H](CO)O1` [Didanosine], the “mean cytoplasmic OPP incorporation” value was 86.9. Take `CN1CCN(c2ccc(OC(F)(F)F)c(Nc3ncc4c(n3)-c3c(c(C(N)=O)nn3CCO)CC4)c2)CC1`: the “mean cytoplasmic OPP incorporation” value was found to be 118. For the compound `Nc1nc(O)c2ncn(CCC(CO)CO)c2n1` [Penciclovir], the “mean cytoplasmic OPP incorporation” value amounted to 97. For `Fc1ccc([C@@H]2CCNC[C@H]2COc2ccc3c(c2)OCO3)cc1` [Paroxetine Hydrochloride] the value was 98.8; for `Fc1ccc([C@@H]2CCNC[C@H]2COc2ccc3c(c2)OCO3)cc1` [Paroxetine maleate], 101.

For the compound `O=C1NC(=O)/C(=C/c2cccc(C(F)(F)F)c2)S1`, the “mean cytoplasmic OPP incorporation” value amounted to 100.9 ± 0.89. In the case of `Cc1cc(O)c2c(c1)C(=O)c1cc(O)cc(O)c1C2=O` [Emodin], the “mean cytoplasmic OPP incorporation” value is 99.3. With `Cn1cc(-c2ccc3nnc(Sc4ccc5ncccc5c4)n3n2)cn1`, the “mean cytoplasmic OPP incorporation” value came out at 105. `Clc1ccc(Nc2nnc(Cc3ccncc3)c3ccccc23)cc1` [Vatalanib]: the “mean cytoplasmic OPP incorporation” value was found to be 125. Turning to `Clc1ccc(Nc2nnc(Cc3ccncc3)c3ccccc23)cc1` [Vatalanib dihydrochloride (PTK787)], the “mean cytoplasmic OPP incorporation” value was 101. `COC(=O)c1ccc2c(C(=Nc3ccc(N(C)C(=O)CN4CCN(C)CC4)cc3)c3ccccc3)c(O)[nH]c2c1` [BIBF1120 (Vargatef)]: the “mean cytoplasmic OPP incorporation” value is 96.9. In the case of `CCOC(=O)[C@H](CCc1ccccc1)N[C@@H](C)C(=O)N1Cc2cc(OC)c(OC)cc2C[C@H]1C(=O)O` [Moexipril hydrochloride], the “mean cytoplasmic OPP incorporation” value came to 107. For `FC(F)(F)c1cccc(-c2noc(-c3cc(-c4ccccc4)c(C(F)(F)F)s3)n2)c1` the value was 107; for `CN1CCC(OC(c2ccccc2)c2ccccc2)CC1` [Diphenylpyraline hydrochloride], 96.2; for `C/C=C1\[C@H]2C=C(C)C[C@]1(N)c1ccc(=O)[nH]c1C2` [(-)-Huperzine A], 102. With `CN1CCN(C2CCN(C(=O)Nc3cc(Oc4ccc(NC(=O)C5(C(=O)Nc6ccc(F)cc6)CC5)c(F)c4)ccn3)CC2)CC1` [Golvatinib (E7050)], the “mean cytoplasmic OPP incorporation” value was determined as 115 ± 4.1.

As to `O=C1C(SCCO)=C(SCCO)C(=O)c2ccccc21`, the “mean cytoplasmic OPP incorporation” value is 71.3 and 55.3. For `Cc1cc2c(F)c(Oc3ncnn4cc(OC[C@@H](C)O)c(C)c34)ccc2[nH]1`, the “mean cytoplasmic OPP incorporation” value stood at 76.4 ± 7. Regarding `COc1cc(/C=C/C(=O)CC(=O)/C=C/c2ccc(O)c(OC)c2)ccc1O` [Curcumin], the “mean cytoplasmic OPP incorporation” value amounted to 96.2 ± 6. In the case of `NCC[C@H](O)C(=O)N[C@@H]1C[C@H](N)[C@@H](O[C@H]2O[C@H](CN)[C@@H](O)[C@H](O)[C@H]2O)[C@H](O)[C@H]1O[C@H]1O[C@H](CO)[C@@H](O)[C@H](N)[C@H]1O` [Amikacin sulfate], the “mean cytoplasmic OPP incorporation” value came to 102. For `NCC[C@H](O)C(=O)N[C@@H]1C[C@H](N)[C@@H](O[C@H]2O[C@H](CN)[C@@H](O)[C@H](O)[C@H]2O)[C@H](O)[C@H]1O[C@H]1O[C@H](CO)[C@@H](O)[C@H](N)[C@H]1O` [Amikacin hydrate] the value was 93.3 ± 8.7; for `COc1ccc(CCN(C)CCCOc2ccc(S(=O)(=O)c3c(C(C)C)c4ccccc4n3C)cc2)cc1OC`, 110; for `CCCCCCN(CCCCCC)C(=O)Cc1c(-c2ccc(Cl)cc2)[nH]c2ccc(Cl)cc12`, 104. Consider `O=C1c2cccc3c2[C@H](CCC3)CN1[C@@H]1CN2CCC1CC2` [Palonosetron HCl], for which the “mean cytoplasmic OPP incorporation” value stood at 95.7. Regarding `C/C(=N\NC(=O)C1C(=O)NCC1c1ccccc1)c1cccc(Br)c1` (stereo not given), the “mean cytoplasmic OPP incorporation” value came out at 102. For `NCCCCCCCCCCNS(=O)(=O)c1cccc2c(Cl)cccc12` [A-7 hydrochloride], the “mean cytoplasmic OPP incorporation” value was found to be 115. `Cn1cnc([N+](=O)[O-])c1Sc1ncnc2[nH]cnc12` [Azathioprine]: the “mean cytoplasmic OPP incorporation” value was 87.2. Consider `Cn1cnc([N+](=O)[O-])c1Sc1ncnc2[nH]cnc12` [Azathioprine (Azasan, Imuran)], for which the “mean cytoplasmic OPP incorporation” value turned out to be 97.5.

As for `CC(=O)Oc1cc2c(s1)CCN(C(C(=O)C1CC1)c1ccccc1F)C2` (stereo not given) [Prasugrel (Effient)], the “mean cytoplasmic OPP incorporation” value is 103. Take `CC(C)C(=O)Nc1ccc([N+](=O)[O-])c(C(F)(F)F)c1` [Flutamide]: the “mean cytoplasmic OPP incorporation” value is 80.2. For `CCC(=O)NC1CCc2cccc(OC)c2C1` (stereo not given), the “mean cytoplasmic OPP incorporation” value came to 101.

As for `OCCN1C[C@H](O)[C@@H](O)[C@H](O)[C@H]1CO` [Miglitol (Glyset)], the “mean cytoplasmic OPP incorporation” value was 101. For `OCCN1C[C@H](O)[C@@H](O)[C@H](O)[C@H]1CO` [Miglitol] the value was 96.6. Turning to `Cc1c(CCOc2ccc(C(=O)O)cc2)c2cc(Cl)ccc2n1C(c1ccccc1)c1ccccc1`, the “mean cytoplasmic OPP incorporation” value came to 105. In the case of `S=C(NCc1ccc2c(c1)OCO2)N1CCN(c2ncnc3c2oc2ccccc23)CC1` [Amuvatinib (MP-470)], the “mean cytoplasmic OPP incorporation” value was determined as 115.

Take `N[C@@H](Cc1cc(-c2ccc(Cl)cc2Cl)cc(CP(=O)(O)O)c1O)C(=O)O`: the “mean cytoplasmic OPP incorporation” value came out at 94.9. On to `CC1(C)CCC2=C(O1)c1ccccc1C(=O)C2=O`, for which the “mean cytoplasmic OPP incorporation” value was 110. As for `CC(=O)OCC[N+](C)(C)C` [Acetylcholine chloride], the “mean cytoplasmic OPP incorporation” value turned out to be 119. In the case of `COC(=O)C1=C(C)NC(C)=C(C(=O)OC(C)C)C1c1cccc2nonc12` (stereo not given) [Isradipine], the “mean cytoplasmic OPP incorporation” value was found to be 105 ± 7.9. As for `O=C1OC(OC(=O)c2cccnc2Nc2cccc(C(F)(F)F)c2)c2ccccc21` (stereo not given) [Talniflumate], the “mean cytoplasmic OPP incorporation” value was determined as 95.8. For `Cn1c(Nc2ccc(C(F)(F)F)cc2)nc2cc(Oc3ccnc(-c4ncc(C(F)(F)F)[nH]4)c3)ccc21` the value was 94.5; for `COc1cc(OC)c(C(=O)CCCCN2CCC3(CC2)NC(=O)NC3=O)cc1NS(=O)(=O)c1ccc(C(F)(F)F)cc1`, 129; for `C[C@H](CCC(=O)O)[C@H]1CC[C@H]2[C@@H]3CC[C@@H]4C[C@H](O)CC[C@]4(C)[C@H]3CC[C@]12C` [Lithocholic acid], 97.6 ± 4.3.

`N[C@@H](CSCCCO)C(=O)O` [Fudosteine]: the “mean cytoplasmic OPP incorporation” value stood at 96.9. `CC(=O)SCC(Cc1ccccc1)C(=O)NCC(=O)OCc1ccccc1` (stereo not given) [Racecadotril]: the “mean cytoplasmic OPP incorporation” value was found to be 112. In the case of `O=C(/C=C/N1C[C@H]2C[C@@H]1CN2c1ccccn1)c1ccccc1O`, the “mean cytoplasmic OPP incorporation” value turned out to be 113. For `CC1COc2c(N3CCN(C)CC3)c(F)cc3c(=O)c(C(=O)O)cn1c23` (stereo not given) [Ofloxacin] the value was 96.3; for `O=C(O)CCCC[C@@H]1SC[C@@H]2NC(=O)N[C@@H]21` [Biotin], 104. Turning to `O=C(O)CCCC[C@@H]1SC[C@@H]2NC(=O)N[C@@H]21` [Biotin (Vitamin B7)], the “mean cytoplasmic OPP incorporation” value was found to be 103. For the compound `COCC(=O)Nc1c(I)c(C(=O)NCC(O)CO)c(I)c(C(=O)N(C)CC(O)CO)c1I` (stereo not given) [Iopromide], the “mean cytoplasmic OPP incorporation” value stood at 100. In the case of `C[C@@]1(O)CCOC(=O)C1` [Mevalonic-D, L acid lactone], the “mean cytoplasmic OPP incorporation” value was 99.4. Take `CCOC(=O)Nc1ccc(NCc2ccc(F)cc2)nc1N` [Flupirtine maleate]: the “mean cytoplasmic OPP incorporation” value was 114. For the compound `CC(C)Cc1ccc(C(C)C(=O)O)cc1` (stereo not given) [Ibuprofen Lysine (NeoProfen)], the “mean cytoplasmic OPP incorporation” value was 98. Regarding `CN(C(=O)c1c(O)c2ccccc2n(C)c1=O)c1ccccc1` [Linomide], the “mean cytoplasmic OPP incorporation” value was 97.1.

On to `Nc1nc2[nH]cc(CCc3ccc(C(=O)N[C@@H](CCC(=O)O)C(=O)O)cc3)c2c(=O)[nH]1` [Pemetrexed (Alimta)], for which the “mean cytoplasmic OPP incorporation” value stood at 91.5. For the compound `CCN1CCN(Cc2ccc(Nc3ncc(F)c(-c4cc(F)c5nc(C)n(C(C)C)c5c4)n3)nc2)CC1`, the “mean cytoplasmic OPP incorporation” value stood at 70.5.
